Experimental data reported in a collection of fitness landscapes (doi:10.1016/j.celrep.2020.107928).
In all, about 81,000 sequences were measured (“one-hybrid fitness for binding NBS DNA”: median about -0.1, highest 2% from about 0.36 on). The list shows a part of the results.

B1: Caulobacter ParB omega fusion; a variant is named by its letters at X, in order, B8GW30 (parent)
chain: MESVVVGEPGMSEGRRGLGRGLSALLGEVDAAPAQAPGEQLGGSREAPIEILQRNPDQPRRTFREEDLEDLSNSIREKGVLQPILVRPSPDTAGEYQIVAGERAWRAAQRAGLKTVPIMVRELDDLAVLEIGIIENVQRADLNVLEEALSYKVLMEKFERTQENIAQTIGKSXSHVANXMRLLXLPDEVQSYLVSGELTAXHARAIAAAADPVALAKQIIEGGLSVRETEALARKAPNLSAGKSKGGRPPRVKDTDTQALESDLSSVLGLDVSIDHRGSTGTLTITYATLEQLDDLCNRLTRGI

Variants of: B1
Experiment: one-hybrid fitness for binding NBS DNA (the Noc-binding site; scaled: cognate 1, non-cognate 0); higher = stronger binding
Conditions: with NBS DNA site
Procedure, shortened: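 Pre- and post-selection plasmids were Illumina-sequenced, three replicate libraries were pooled, and any variant with under 10 reads was removed. The libraries were Caulobacter ParB with four specificity codons randomised, selected in E. coli USO through a HIS3 reporter whose site is 19 bp from the promoter. Cells grew 48 hours at 37°C on M9 without histidine, with 0.1 mM IPTG and 5 mM 3-AT. Fitness is the log change in variant-to-wild-type read ratio, rescaled against cognate and non-cognate.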

Variant | one-hybrid fitness for binding NBS DNA
GRQK | ≤ 0.2
HRGQ | ≤ 0.2
LPAF | ≤ 0.2
VTSF | ≤ 0.2
THHR | ≤ 0.2
STHY | ≤ 0.2
QTSP | ≤ 0.2
KAIM | ≤ 0.2
ARTK | ≤ 0.2
MHSA | ≤ 0.2
TIGC | ≤ 0.2
IPIV | ≤ 0.2
HLKK | ≤ 0.2
YIFL | ≤ 0.2
RWCM | ≤ 0.2
DTTA | ≤ 0.2
YQSR | ≤ 0.2
LTPP | ≤ 0.2
DEQR | ≤ 0.2
QRSG | 0.339
SYTE | ≤ 0.2
RMEE | ≤ 0.2
NEMC | ≤ 0.2
CQVA | ≤ 0.2
QRHV | 0.439
GYTH | ≤ 0.2

Variant | one-hybrid fitness for binding NBS DNA
QTAD | ≤ 0.2
NRED | ≤ 0.2
ARVH | ≤ 0.2
KRYN | ≤ 0.2
KCDL | ≤ 0.2
QWPL | ≤ 0.2
GLMW | ≤ 0.2
QAQA | 0.252
TNTM | ≤ 0.2
DATS | ≤ 0.2
CHYK | ≤ 0.2
TQNH | ≤ 0.2
MTEG | ≤ 0.2
SAWQ | ≤ 0.2
QRNE | 0.276
QPMS | ≤ 0.2
AVRD | ≤ 0.2
MHGS | ≤ 0.2
KALC | ≤ 0.2
AFDS | ≤ 0.2
AFMS | ≤ 0.2
MNVM | ≤ 0.2
DSVG | ≤ 0.2
RGHM | ≤ 0.2
PMFI | ≤ 0.2
SDKM | ≤ 0.2

Variant | one-hybrid fitness for binding NBS DNA
ALIC | ≤ 0.2
WHTA | ≤ 0.2
GDYC | ≤ 0.2
YRHT | ≤ 0.2
TIAV | ≤ 0.2
FKSV | ≤ 0.2
EMNT | ≤ 0.2
VNMT | ≤ 0.2
GNYL | ≤ 0.2
VAVI | ≤ 0.2
LGSC | ≤ 0.2
AWRL | ≤ 0.2
RMKT | 0.606
AKGC | ≤ 0.2
ASLK | ≤ 0.2
FDAT | ≤ 0.2
VSLY | ≤ 0.2
TACH | ≤ 0.2
EMCS | ≤ 0.2
FVLA | ≤ 0.2
SDQP | ≤ 0.2
GQQS | ≤ 0.2
RPHW | ≤ 0.2
KGDC | ≤ 0.2
LASQ | ≤ 0.2
